{"source": "PubChem BioAssay AID624296", "about": "(National Center for Advancing Translational Sciences (NCATS), 2012)", "note": "Where “and” joins values, the source holds several entries; their conditions need not be identical. Identical values can stand only once. About 9,900 (2.8%) of roughly 350,000 compounds were called active. Inconclusive results, whose numbers are uncertain, are shown with a selection of clear calls. Calls follow the shape of the dose curve; as a rule, active = well fitted activation curve with a large enough effect; inconclusive = small, poorly fitted or top-dose-only effect; inactive = no such curve, though single readings can be large or run the other way. Potencies beside an inconclusive call are fits to weak or partial responses and may not hold up. Potency is read from the fitted curve at half-maximal effect; tags tell the direction and shape of the fitted curve."}
{"test": "A quantitative high throughput screen for small molecules that induce DNA re-replication in MCF 10a normal breast cells; also: nearly all actives have a fitted effect of over 50% in size; as to activity, positive = re-replication: % of control where 0% means no effect.", "conditions": "MCF 10A DNA re-replication, Hoechst nuclear intensity, 48 h; activity, positive = re-replication: at 46.1 µM (top of the series)"}
{"smiles": "CC(=O)N1CCN(C(=O)c2ccc(Cl)c(S(=O)(=O)N3CCCCCC3)c2)CC1", "Potency": "inconclusive: 29.1 µM [activator, partial curve, poor fit]"}
{"smiles": "CC(C)Nc1nc(C#N)nc(NC(C)C)n1", "Potency": "inconclusive: 20.6 µM [activator, single point]"}
{"smiles": "O=C1C=C(NCc2ccc(Cl)c(Cl)c2)CC1", "Potency": "inactive"}
{"smiles": "COc1ccc(CCC(=O)NCC(c2ccco2)N2CCc3ccccc32)cc1", "note": "(stereo not drawn)", "Potency": "inconclusive: 25.9 µM [activator, partial curve, poor fit]"}
{"smiles": "CCN(C(=O)COC(=O)Cn1c(C)csc1=O)c1c(N)n(Cc2ccccc2)c(=O)[nH]c1=O", "Potency": "inconclusive: 25.9 µM [activator, single point]"}
{"smiles": "CC(C)c1ccc(OCC(O)CN2CCN(c3ccccc3)CC2)cc1", "note": "(stereo not drawn)", "Potency": "inconclusive: 7.08 µM [activator, partial curve] and inconclusive: 18.4 µM [activator, single point]"}
{"smiles": "CCN1C(=O)[C@H]2[C@@H](c3ccc(-c4ccc(F)cc4)cc3)N3CCCC[C@@]3(C(=O)OC)[C@H]2C1=O", "Potency": "inconclusive: 20.6 µM [activator, single point]"}
{"smiles": "Cc1c(Cl)cccc1NC(=O)C1=COCCO1", "Potency": "inactive"}
{"smiles": "CCN(CC(=O)Nc1c(C(=O)OC)[nH]c2ccc(C)cc12)c1ccc2c(c1)OCO2", "Potency": "inconclusive: 9.2 µM [activator, partial curve]"}
{"smiles": "CCOC(=O)c1c(-c2ccc(C)o2)csc1NC(=O)CSc1nncs1", "Potency": "inactive"}
{"smiles": "CC(C)(C)c1ccc(CN(Cc2ccco2)Cc2nnnn2C2CCCC2)cc1", "Potency": "inconclusive: 18.4 µM [activator, single point]"}
{"smiles": "Cc1noc(C)c1COc1ccc(CC(=O)NC2CCCCCC2)cc1", "Potency": "inactive"}
{"smiles": "CC1(C)CC(=O)c2cc(OCC(=O)NCCCN3CCN(c4ccc(F)cc4)CC3)ccc2O1", "Potency": "inconclusive: 2.91 µM [activator, partial curve]"}
{"smiles": "CCSc1nc2ccc(OC)cc2cc1C#N", "Potency": "inconclusive: 16.4 µM [activator, partial curve, poor fit]"}
{"smiles": "O=C(NCCc1ccccc1)C(=O)c1c[nH]c2ccccc12", "Potency": "inactive"}
{"smiles": "COc1ccc(C(=O)NC(=S)NNC(=O)Cc2cccs2)cc1", "activity, positive = re-replication": "inactive: 325% [at 0.0737 µM]"}
{"smiles": "Cc1ccc(CNC(=O)C2CC(c3ccccc3C(F)(F)F)=NO2)cc1", "note": "(stereo not drawn)", "Potency": "inconclusive: 0.116 µM [activator, full curve, poor fit]"}
{"smiles": "CCOC(=O)N1CCN(C2=C(NS(=O)(=O)c3ccc(NC(C)=O)cc3)C(=O)c3ccccc3C2=O)CC1", "Potency": "inconclusive: 25.9 µM [activator, partial curve, poor fit]"}
